The whole screen tested about 310,000 compounds, of which about 14,000 (4.5%) showed an effect of 50% or more. The effect is printed as a negative number. The list shows a part of the results.
Target: human ether-à-go-go-related gene (hERG) potassium channel (human, UniProt Q12809)
Experiment: primary screen, population patch clamp on CHO cells stably expressing hERG
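Further: peak tail current of the secondary pulse compared with the same well before compound.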

Chain of human ether-à-go-go-related gene (hERG) potassium channel (Q12809 whole entry, looked up): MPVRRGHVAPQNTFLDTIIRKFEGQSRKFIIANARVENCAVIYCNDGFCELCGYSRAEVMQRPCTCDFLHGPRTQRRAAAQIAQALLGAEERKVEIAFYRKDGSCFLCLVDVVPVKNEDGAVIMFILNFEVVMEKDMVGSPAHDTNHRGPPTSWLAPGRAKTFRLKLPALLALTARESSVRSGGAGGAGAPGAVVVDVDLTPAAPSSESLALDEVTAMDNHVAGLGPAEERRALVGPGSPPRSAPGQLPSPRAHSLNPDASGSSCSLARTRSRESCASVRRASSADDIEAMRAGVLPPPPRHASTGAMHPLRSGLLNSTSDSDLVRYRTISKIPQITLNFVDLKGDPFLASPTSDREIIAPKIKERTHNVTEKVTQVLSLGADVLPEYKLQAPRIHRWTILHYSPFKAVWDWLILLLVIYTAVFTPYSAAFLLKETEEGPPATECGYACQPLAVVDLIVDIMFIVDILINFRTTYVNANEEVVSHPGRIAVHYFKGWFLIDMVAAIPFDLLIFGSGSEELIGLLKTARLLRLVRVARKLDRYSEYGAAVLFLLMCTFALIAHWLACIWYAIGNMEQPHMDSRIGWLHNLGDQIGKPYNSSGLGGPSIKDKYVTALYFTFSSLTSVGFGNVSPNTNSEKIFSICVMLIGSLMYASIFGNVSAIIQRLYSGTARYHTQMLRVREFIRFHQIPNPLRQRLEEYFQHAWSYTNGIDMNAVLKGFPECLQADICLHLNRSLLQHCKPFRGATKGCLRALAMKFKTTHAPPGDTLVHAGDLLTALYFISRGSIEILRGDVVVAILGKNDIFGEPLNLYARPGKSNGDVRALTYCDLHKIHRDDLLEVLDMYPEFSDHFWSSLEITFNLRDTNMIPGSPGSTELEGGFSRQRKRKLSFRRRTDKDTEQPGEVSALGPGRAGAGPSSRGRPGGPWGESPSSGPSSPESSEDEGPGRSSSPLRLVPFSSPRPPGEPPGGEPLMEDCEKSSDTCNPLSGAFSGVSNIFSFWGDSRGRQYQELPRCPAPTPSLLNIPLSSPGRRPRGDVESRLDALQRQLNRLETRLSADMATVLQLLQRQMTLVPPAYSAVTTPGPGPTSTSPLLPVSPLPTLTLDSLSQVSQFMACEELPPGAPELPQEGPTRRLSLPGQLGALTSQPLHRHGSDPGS

Row | SMILES | hERG current change (%, negative = inhibition) at 10uM [%]
1 | O=C(CNC(=O)c1ccc(Cl)cc1Cl)Nc1ccc(F)cc1 | -4.01
2 | CCOC(=O)N1CCN(C(=O)c2cc(S(=O)(=O)N3CCc4ccccc43)ccc2OC)CC1 | -52.1
3 | O=C(NCc1ccc(Cl)cc1)C1CCC(CNc2c(N3CCCCC3)c(=O)c2=O)CC1 (centres unmarked) | 6.29
4 | Cc1cc(C(=O)NCc2ccccc2F)c2ccccc2n1 | 13.2
5 | COc1ccccc1NC(=O)CN1C(=O)C2(OCCCO2)c2ccccc21 | 0.384
6 | O=C(NCc1nnc2c(C(F)(F)F)cc(Cl)cn12)c1ccco1 | -6.67
7 | N#CC1(NC(=O)Cn2ncc(Cl)c(Cl)c2=O)CCCCC1 | 27.6
8 | CCOC(=O)c1sc(NC(=O)c2ccc(Cl)s2)cc1C | 3.03
9 | O=C(COc1ccc2c(C(F)(F)F)cc(=O)oc2c1)Nc1ccc(N2CCOCC2)cc1 | 0.738
10 | CCC1(c2ccccc2)NC(=O)N(CC(=O)Nc2cc(S(=O)(=O)N3CCCCCC3)ccc2OC)C1=O (centres unmarked) | -26.6
11 | Cc1cc2cc(CNC(=S)NC3CCCCC3)ccc2n1C | 13.8
12 | COC(CNC(=O)c1c[nH]c2ccc(S(=O)(=O)N3CCOCC3)cc2c1=O)OC | 10.3
13 | CCN(CC)CCNC1=NCCn2c1cc1cc(OC)ccc12.Cl | -66.6
14 | CN(C)S(=O)(=O)Oc1ccsc1C(=O)Nc1cccc(Cl)c1Cl | -6.15
15 | COc1ccc(CCN2C(=O)CS/C2=N\NC(=O)c2cccs2)cc1OC | -8.13
16 | CC1CCCC(NC(=O)COC(=O)/C=C/c2ccc(S(=O)(=O)N3CCOCC3)cc2)C1C (centres unmarked) | 1.54
17 | CCOc1ccc(C(=O)Nc2ccccc2CC)cc1[N+](=O)[O-] | -21.9
18 | COC(=O)c1cc(Br)c(=O)n(Cc2ccc(C(=O)O)cc2)c1 | 15.9
19 | COc1ccc(CNC(=O)CN(Cc2ccc(OC)cc2)C(=O)CCC(=O)Nc2ccccn2)cc1 | -64.4
20 | COc1ccc(OC)c(N=Cc2c(O)[nH]c3ccccc23)c1 | -4.43
21 | CCCN(CC(=O)NC(=O)NC1CCCCC1)CC(=O)Nc1cc(Cl)ccc1Cl | 17.3
22 | CCOc1cc2c(cc1OCC)C(c1ccc(OC)c(OC)c1)N(c1ccc(C(=O)O)cc1)C(=O)C2 (centres unmarked) | 20.3
23 | CCn1cc(C(=O)O)c(=O)c2cnc(N3CCN(C(=S)Nc4ccccc4Cl)CC3)nc21 | -4.66

Source: paper PMC4336329 (PLoS ONE, 2015)
